# Reference: PubChem BioAssay AID1671194 (National Center for Advancing Translational Sciences (NCATS), 2021)
# The whole screen tested about 140,000 compounds, of which about 240 (0.17%) were called active. The inconclusive results got no clear call from the source; some entries with a clear call stand among them for comparison. Calls follow the shape of the dose curve; as a rule, active = well fitted inhibition curve with a large enough effect; inconclusive = small, poorly fitted or top-dose-only effect; inactive = no such curve, though single readings can be large or run the other way. A potency beside an inconclusive call is a rough fit, not a confirmed value.
# Test: Primary qHTS assay for inhibitors of alpha-synuclein gene (SNCA) expression; also: nearly all actives have a fitted effect of over 45% in size;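 as to activity change, negative = inhibition: plate controls were DMSO cells for no effect and cell-free wells for full effect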
# Conditions: HEK-293 SNCA-luciferase knock-in, luminescence, 24 h; activity change, negative = inhibition: at 57.2 µM (top of the series) unless noted
# Potency is read from the fitted curve at half-maximal effect; tags tell the direction and shape of the fitted curve.
Structure (SMILES),Potency,"activity change, negative = inhibition"
CCCN1C(=O)C2(c3ccccc31)c1c(oc3ccccc3c1=O)C(=O)N2CCO (stereo not given),"inconclusive: 31.6 µM [inhibitor, partial curve, poor fit]",–
O=c1oc2ccc(Br)cc2cc1-c1csc(-c2ccc(Cl)cc2)n1,"inconclusive: 0.178 µM [inhibitor, single point]",–
CCCNC(=O)c1ccc(-n2c(-c3ccccc3)cc3c2CCC(C)C3)cc1 (stereo not given),"inconclusive: 39.8 µM [inhibitor, single point]",–
O=C(c1cccc2[nH]ccc12)N1CC(Oc2cccc(-c3nc(-c4ccccc4)no3)c2)C1,–,inactive: 60.8%
O=C(Nc1ccc(Cl)c(C(F)(F)F)c1)c1ccc2c(c1)CCN2S(=O)(=O)c1ccccc1,"inconclusive: 15.8 µM [inhibitor, partial curve, poor fit]",–
O=C(Nc1ccc(N2CCOCC2)cc1)C1(CCO)CCN(c2ncccn2)C1 (stereo not given),"inconclusive: 6.31 µM [inhibitor, partial curve, poor fit]",–
CCS(=O)(=O)N(C1CC1)C1CCOC2(CCN(C(=O)c3ccc(OC)cc3)CC2)C1 (stereo not given),"inconclusive: 7.94 µM [inhibitor, partial curve]",–
O=C(NCc1ccccc1)c1ccc2nnc(Cc3ccco3)n2c1,–,inactive: -1.16%
COc1cccc(-c2cc(N(C)Cc3ccco3)ncn2)c1,"inconclusive: 15.8 µM [inhibitor, partial curve, poor fit]",–
CN1CCC(C(=O)N2Cc3ccccc3OC3(CCN(C(=O)N(C)C)CC3)C2)CC1,inactive,–
CCCSc1nc(-c2ccc(OC)cc2)cc(-c2ccccc2OC)c1C#N,"inconclusive: 10 µM [inhibitor, partial curve, poor fit]",–
COc1ccc(Cl)cc1Nc1cc(C)nc2nc(-c3ccccc3C)nn12,"inconclusive: 6.31 µM [inhibitor, full curve, poor fit]",–
Cc1ccc(C(=O)N(C)CC2CCOCC2)cc1F,"inconclusive: 3.16 µM [inhibitor, single point]",–
Cc1noc2c(N3CCN(Cc4ccccc4)CC3)cc(-c3ccsc3)nc12,"inconclusive: 25.1 µM [inhibitor, partial curve, poor fit]",–
CC(=O)Nc1ccc(C2(C(=O)N(C)Cc3ccccc3)CCCCC2)cc1,"inconclusive: 10 µM [inhibitor, single point]",–
COc1ccc(OC)c(CCNC(=O)Cn2ccc3cc(S(=O)(=O)N4CCCCC4)ccc32)c1,"inconclusive: 39.8 µM [inhibitor, single point]",–
C[C@H]1[C@@H]2[C@@H](O)C([C@H](C)C(=O)NCc3ccccc3)CC[C@@]2(C)CC[C@@H]1NC(=O)c1ccncc1 (stereo not given in full),–,inactive: -3.47%
Fc1ccc(-c2cnc([C@@H]3COCCN3Cc3cccnc3)[nH]2)cc1,"inconclusive: 12.6 µM [inhibitor, single point]",–
Cc1ccc(C(=O)N2CCCCCCN(C)C(=O)[C@@H]3CCC[C@@H]32)s1,–,inactive: -2.96%
O=C(N[C@H]1CCN2C(=O)c3cc(-c4ccc(Cl)cc4)ccc3NC(=O)[C@H]12)c1cccs1,–,inactive: 11.8%
CC1=C[C@@H](CN2CCC(CO)CC2)[C@H](C(C)C)C[C@H]1Cc1nnc(-c2cccnc2)o1,–,inactive: -3.09% [at 87.6 µM]
COCCCNC(=O)c1csc(N2CCN(c3ccccc3)CC2)n1,–,inactive: -26.7%

Structure (SMILES),Potency,"activity change, negative = inhibition"
Cc1ccc(C)c(Cn2cnc3c(cnn3-c3ccc(F)cc3)c2=O)c1,"inconclusive: 39.8 µM [inhibitor, single point]",–
CCN(Cc1ccccc1)S(=O)(=O)c1ccc2c(c1)CCCN2C(C)=O,"inconclusive: 39.8 µM [inhibitor, single point]",–
COc1ccccc1CNC(=O)c1cc2cccc3c2n1CC(C)S3 (stereo not given),"inconclusive: 39.8 µM [inhibitor, single point]",–
O=C(NCCc1ccccc1)c1cnc2n[nH]c(-c3ccccc3)c2n1,–,inactive: -19% [at 87.6 µM]
CC(C)CNC(=O)N(C)CC1CCOCC1,"inconclusive: 6.31 µM [inhibitor, single point]",–
Cc1cnc(CCNC(=O)NC(C)(C)C)n1CC1CC1,"inconclusive: 8.91 µM [inhibitor, single point]",–
CC(C)c1nc2c(c(-c3ccc(O)cc3)n1)CN(Cc1cccc(C(F)(F)F)c1)CC2,"inconclusive: 5.01 µM [inhibitor, full curve, poor fit]",–
O=C1CCN(C(=O)CCc2ccccc2)CCCCCCN1,"inconclusive: 3.16 µM [inhibitor, full curve]",–
Cc1ccc(-c2c(C(=O)NCc3ccc(F)cc3)oc(=O)c3ccccc23)cc1,"inconclusive: 25.1 µM [inhibitor, single point]",–
CSc1ccc(-c2nc3c(C)cccn3c2Nc2ccc3c(c2)OCCO3)cc1,"inconclusive: 0.178 µM [inhibitor, partial curve, poor fit]",–
CSc1ccc(C(=O)Nc2ccc(-c3nc4ccccc4s3)c(O)c2)cc1,–,inactive: -15%
N=c1n(CCN2CCCCC2)c2ccccc2n1CC(O)COc1ccccc1 (stereo not given),"inconclusive: 0.178 µM [inhibitor, single point]",–
CCN(C(=O)CN1C(=O)COc2ccc(S(=O)(=O)N3CCOCC3)cc21)c1cccc(C)c1,"inconclusive: 0.447 µM [inhibitor, full curve, poor fit]",–
CC1=C[C@@H](CNC(=O)CN(C)C)[C@H](C(C)C)C[C@H]1Cc1nc2ccc(Cl)cc2[nH]1,"inconclusive: 22.4 µM [inhibitor, partial curve, poor fit]",–
O=C(NC1CCCC1)N1CCN(Cc2ccccc2-c2cccnc2)CC1,–,inactive: 18.7%
COC(=O)Cn1ccc2cc(S(=O)(=O)N3CCCCCC3)ccc21,"inconclusive: 39.8 µM [inhibitor, single point]",–
Cc1ccccc1NS(=O)(=O)c1ccc2[nH]cc(C(=O)NC3CCCCC3)c(=O)c2c1,"inconclusive: 39.8 µM [inhibitor, single point]",–
CCN(Cc1cnn(C)c1)C(=O)c1coc(COc2cccc(C(F)(F)F)c2)n1,–,inactive: 4.88%
Cc1ccccc1Cn1cc(-c2ccncc2)cc1C(=O)N(C)Cc1ccco1,"inconclusive: 17.8 µM [inhibitor, partial curve]",–
COc1cc(SC)ccc1C(=O)N[C@H]1CCN2C(=O)N(c3cccc(SC)c3)C(=O)[C@@H]2C1,"inconclusive: 8.91 µM [inhibitor, partial curve, poor fit]",–
CN(C)c1nc(NCCN2CCOC2=O)ncc1F,–,inactive: -14%
Cn1cccc1C(=O)N1CCC(c2nc(-c3cccn3C)no2)CC1,–,inactive: 22.3%

Structure (SMILES),Potency,"activity change, negative = inhibition"
O=C(Cn1nc(-c2ccccc2)c2c(c1=O)CCCC2)Nc1ccc(F)c(Cl)c1,"inconclusive: 31.6 µM [inhibitor, single point]",–
Cc1cc(C)cc(NC(=S)N[C@H]2CO[C@H]3[C@@H]2OC[C@@H]3n2nnnc2Oc2cccc(N(C)C)c2)c1,"inconclusive: 31.6 µM [inhibitor, single point]",–
COc1ccc(NC(=O)N2Cc3[nH]cnc3C[C@H]2c2nc(-c3ccc(C)cc3)no2)cc1,"inconclusive: 12.6 µM [inhibitor, partial curve, poor fit]",–
CC1CCN(C(=O)c2csc(N3CCN(c4ccc(Cl)cc4)CC3)n2)CC1,"inconclusive: 10 µM [inhibitor, full curve, poor fit]",–
COc1ccc(NC(=O)Cn2c(-c3ccc(F)cc3)nc(C)c(CCO)c2=O)cc1OC,"inconclusive: 2.82 µM [inhibitor, partial curve, poor fit]",–
CCN1C(=O)C2CC3(CCN(C(=O)NC)CC3)CN2C1=O (stereo not given),–,inactive: 3.58%
CC(C)CNC(=O)C1Cn2cccc2C(=O)N1Cc1ccccc1 (stereo not given),"inconclusive: 3.16 µM [inhibitor, single point]",–
CCN(C(=O)c1ccc2c(c1)N(S(C)(=O)=O)CC2)c1ccccc1C,"inconclusive: 39.8 µM [inhibitor, single point]",–
Cc1ccc(Nc2ccc3cc(S(=O)(=O)N4CCCCC4)ccc3n2)cc1F,"inconclusive: 22.4 µM [inhibitor, single point]",–
COc1ccc(-c2ncc(CN3CCCC4(C3)CN(C)C(=O)O4)cn2)cc1 (stereo not given),–,inactive: 8.01%
Cc1ccc(C(=O)N2CCC3(CCC(=O)N(Cc4ccccc4)CC3)CC2)s1,"inconclusive: 15.8 µM [inhibitor, partial curve, poor fit]",–
COc1ccccc1NC(=O)c1c(C)cc(C)nc1SCC(=O)Nc1ccc(C)c(C)c1,"inconclusive: 2 µM [inhibitor, full curve, poor fit]",–
Cc1ccc(NC(=O)Nc2cccc(C)n2)cc1,–,inactive: 24.9%
CCCNC(=O)[C@@H]1Cc2cn(Cc3ccccn3)c3cccc(c23)[C@H](CC(C)C)N1,"inconclusive: 56.2 µM [inhibitor, single point]",–
c1ccc(-c2noc(-c3cncnc3NC3CCc4ccccc43)n2)cc1 (stereo not given),–,inactive: 21.3%
COc1ccc(NC(=O)c2c(NCc3cccs3)sc3c2CCCC3)c(OC)c1,"inconclusive: 20 µM [inhibitor, single point]",–
COc1cc(-c2nc3c([nH]2)CCCNC3=O)ccc1O,–,inactive: -21.2%
Cc1ccc(CSC2=Nc3ccccc3C3=NC(CC(=O)NCc4cccs4)C(=O)N23)c(C)c1 (stereo not given),"inconclusive: 7.08 µM [inhibitor, single point]",–
COc1cccc(CC(=O)N2CCC3(CC2)OC(=O)N(Cc2csc(C)n2)C3(C)c2ccccc2)c1 (stereo not given),–,inactive: -8.06%
Cc1ccc(-c2ccc(=O)n(CC(=O)NCCc3ccc(Cl)cc3)n2)cc1,"inconclusive: 39.8 µM [inhibitor, single point]",–
O=C(NC1CCCC1)c1csc(N2CCN(c3ccccc3F)CC2)n1,"inconclusive: 28.2 µM [inhibitor, partial curve, poor fit]",–
